The campaign covered roughly 410,000 compounds. About 7,200 (1.8%) were called active. This list was built around the results that the source calls inconclusive (neither active nor inactive); the mix of calls is not that of the screen. Calls follow the shape of the dose curve; as a rule, active = well fitted activation curve with a large enough effect; inconclusive = small, poorly fitted or top-dose-only effect, or another doubt; inactive = no such curve, though single readings can be large or run the other way. No potency is given beside an inconclusive call; the fits are too rough.
Test: qHTS of TDP-43 Inhibitors; also: nearly all actives have a fitted effect of over 50% in size; as to growth rescue (activation): % of control where 0% means no effect
Conditions: TDP-43 expressing yeast growth rescue, BacTiter-Glo, 24 h; growth rescue (activation): at 46.1 µM (top of the series) unless noted
Outline: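 Cell-based yeast growth screen: TDP-43 expression induced in galactose, inoculum OD600=0.02 after raffinose pregrowth to mid-log. Read-out BacTiter-Glo luminescence at 24 hr, 30 deg C; inhibition of toxicity seen as signal increase.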
Potency is read from the fitted curve at half-maximal effect; tags tell the direction and shape of the fitted curve.

SMILES | Potency | growth rescue (activation)
COc1cc(CNc2ccccc2)c([N+](=O)[O-])cc1OC | inconclusive [activator, partial curve] | –
CS(=O)(=O)N(CCc1ccccc1)CC(=O)Nc1ccc(Br)cc1F | inconclusive [activator, partial curve] | –
CCCCC(=O)Nc1ccc(NC(=O)c2ccc3c(c2)OCO3)cc1OC | – | inconclusive: 29.8% [activator]
O=C1c2ccccc2NC(c2ccc(F)cc2)N1Cc1ccccc1 (configuration not stated) | active: 20 µM | –
O=C(/C=C/c1ccc2c(c1)OCO2)N1CCN(c2ccccc2F)CC1 | active: 35.5 µM | –
COc1cnc(-c2ccccn2)nc1Oc1ccc(C(C)(C)C)cc1 | inconclusive [activator, partial curve] | –
O=C(COC(=O)c1n[nH]c2ccccc12)Nc1ccccc1Br | inconclusive [activator, single point] | –
COc1ccc2nc(SCC(=O)c3c(C)[nH]c4ccccc34)nc(C)c2c1 | inactive | –
Cc1ccc(CNC(=O)CSCc2ccc(F)cc2)cc1 | inconclusive [activator, partial curve] | –
O=C(c1cc(-c2ccccc2)n[nH]1)N1CCc2c([nH]c3ccccc23)C1c1ccccn1 (configuration not stated) | active: 17.8 µM | –
Clc1cccc(/C=N/Nc2nc(Cl)nc3ccccc23)c1 | inconclusive [activator, partial curve] | –
O=C(/C=C/c1ccc(Br)cc1)c1ccco1 | inconclusive [activator, partial curve] | –
COc1cc(OC)c(-c2nnc(-c3ccc(OC)c(OC)c3OC)o2)cc1OC | inactive | –
Cc1cc(N2CCCCC2)nc2ccc(NC(=O)/C=C/c3ccccc3OC(C)C)cc12 | inconclusive [activator, single point] | –
Cc1c(C(=O)NCc2ccccc2F)oc2ccccc12 | inconclusive [activator, single point] | –
Cc1cccc(CSc2cn(CC(=O)N3CCCC3)c3ccccc23)c1 | inconclusive [activator, single point] | –
COCCCn1c(=S)[nH]c2ncccc2c1=O | inactive | –
Cc1c(C(=O)NCCc2ccc(Cl)cc2)sc2nc3n(c(=O)c12)CCC3 | inconclusive [activator, partial curve] | –
S=C(NCCc1ccc(Cl)cc1)NC1CCCCC1 | inactive | –
CCC(Oc1ccccc1)C(=O)Nc1ccc2oc(-c3ccc(OC)cc3)nc2c1 (configuration not stated) | inactive | –
Cc1cc(C)n(CCOC(=O)c2sc3ccccc3c2Cl)n1 | inconclusive [activator, single point] | –
O=C(O)c1ccccc1-c1csc(-c2ccccc2)n1 | inconclusive [activator, single point] | –
CC(C)C[C@@H](CNCC(=O)[C@H](CC(C)C)NC(=O)c1[nH]cnc1C(=O)N[C@@H](C)CN)NC(=O)c1nc[nH]c1C(=O)N[C@@H](CC(=O)O)C(=O)O | inconclusive [activator, single point] | –

SMILES | Potency | growth rescue (activation)
CCOC(=O)c1cnc2c(N=Nc3ccccc3)c(N)nn2c1N | inconclusive [activator, full curve] | –
CN(C)c1ccc(C=c2c3cc([N+](=O)[O-])ccc3n3c2cc(-c2ccccc2)[n+]3C)cc1 | – | inconclusive: -94% [activator]
Cc1ccccc1-c1nc(CS(=O)(=O)CC(=O)N2CCN(c3ccccc3)CC2)c(C)o1 | active: 12.6 µM | –
O=[N+]([O-])c1ccc(Cl)c(S(=O)(=O)N2CCCCCC2)c1 | inconclusive [activator, partial curve, poor fit] | –
O=C(NCCc1ccccc1Cl)c1cc(COc2ccc(F)cc2F)on1 | inconclusive [activator, full curve] | –
CCN(CC)C(=O)c1nc(-c2cccc3ccccc23)no1 | inconclusive [activator, single point] | –
COc1ccc(NC(=O)C2Cc3c(-c4cccc(F)c4)ccnc3O2)cc1OC (configuration not stated) | inconclusive [activator, single point] | –
COc1ccc(C(=O)N2CC(=O)Nc3ccc(F)cc3C2c2ccc(F)cc2)c(OC)c1 (configuration not stated) | inconclusive [activator, partial curve, poor fit] | –
COC(=O)c1sc(NC(=O)COc2cccc(C)c2)nc1C | inconclusive [activator, partial curve] | –
O=C1C=C(C#Cc2ccccc2)C[C@@H](c2ccc(F)cc2)C1 | active: 17.8 µM | –
Cc1c(-c2nc(N)nc(Nc3ccccc3)n2)oc2ccccc12 | inconclusive [activator, single point] | –
O=[N+]([O-])c1ccc(F)cc1OCc1nc(-c2cccs2)no1 | inactive | –
Cc1ccc(C2=C(c3ccc([N+](=O)[O-])cc3)C(=O)OC2)cc1C | active: 12.6 µM | –
Nc1ccccc1SC(C[N+](=O)[O-])c1ccccc1 (configuration not stated) | – | inconclusive: -90.6% [activator]
CCC1(C)Cc2c(C#N)c(SC)nc(N3CCOCC3)c2CO1 (configuration not stated) | inconclusive [activator, partial curve] | –
CCOC(=O)c1cc(C)n(CC2CCC(C(=O)Nc3ccc(Cl)cc3)CC2)c1C (configuration not stated) | inconclusive [activator, partial curve] | –
COc1ccc(C[C@@H]2CN3C(=NC[C@@H]3C)N2C[C@H](C)NC(=O)CCC2CCCCC2)cc1 | inconclusive [activator, partial curve] | –
CN(CC(=O)Nc1c(Cl)cccc1Cl)C(=O)c1sccc1-c1ccccc1 | – | inconclusive: 33.9% [activator]
CCCNC(=O)c1onc(CSc2ccc(F)c(F)c2)c1C(=O)NCCC | inconclusive [activator, single point] | –
COc1ccc(/C=N\NC(=O)c2ccccc2F)cc1COc1ccc(F)cc1F | inconclusive [activator, single point] | –
O=C(CS(=O)(=O)c1ccc(Cl)cc1)N1CCN(c2ccccc2)CC1 | inconclusive [activator, partial curve] | –
CCOc1ccc(OCC)c2sc(C)nc12 | inconclusive [activator, single point] | –
O=C(CC1CCCC1)Nc1ccc(Br)cc1 | inconclusive [activator, partial curve] | –

SMILES | Potency | growth rescue (activation)
COc1ccccc1CO/N=C/c1cccn1-c1nccc(N(C)C)c1C#N | inconclusive [activator, single point] | –
Cc1cccc(C)c1-n1nnnc1C1(C)CCC(=O)N1C1CC1 (configuration not stated) | inconclusive [activator, full curve] | –
Cc1cc([N+](=O)[O-])c(C(C)(C)C)cc1N | inconclusive [activator, partial curve] | –
CCOC(=O)CC1c2cc(OCC)c(OCC)cc2CCN1C(=O)Nc1cccc(Cl)c1 (configuration not stated) | inconclusive [activator, partial curve] | –
Cc1ccc2c(c1)cc1c(=O)n(CC(=O)NC3CCCCC3)nc(C)n12 | inactive | –
Cc1nc2nc(SCC(=O)NCCc3ccc(Cl)cc3)nn2c(C)c1Cc1ccccc1 | inconclusive [activator, single point] | –
O=C(Nc1cc(N2CCCCC2)ncn1)c1ccc(F)cc1 | inconclusive [activator, single point] | –
O=C(Nc1ccc(F)c(Cl)c1)C1Cc2c(-c3cccc(F)c3)ccnc2O1 (configuration not stated) | active: 17.8 µM | –
Cc1cccc(C)c1-n1ncc(C(=O)N2CCN(c3ccccn3)CC2)c1C1CCN(C(=O)OC(C)(C)C)CC1 | inconclusive [activator, partial curve] | –
COCOCCn1cc(CN2CCS(=O)(=O)N(Cc3ccc(-c4ccc(Cl)c(Cl)c4)cc3)C(C(C)C)C2=O)nn1 (configuration not stated) | active: 35.5 µM | –
COc1ccc(OC)c(C(=O)NC2CCCc3c2cnn3-c2cc(C)cc(C)c2)c1 (configuration not stated) | inconclusive [activator, single point] | –
CCc1nc(Nc2ccc3nccnc3c2)c2oc3ccccc3c2n1 | inactive | –
O=C(CC1C(=O)OCCN1Cc1ccccc1)Nc1ccc(F)cc1 (configuration not stated) | active: 12.6 µM | –
CCOc1ccccc1N(CC(=O)Nc1ccc(C)cc1)S(C)(=O)=O | inconclusive [activator, partial curve] | –
CCC(=O)N1c2ccc(S(=O)(=O)N3CCC(C)CC3)cc2CC1C (configuration not stated) | inconclusive [activator, partial curve, poor fit] | –
O=C(NCc1ccccc1)c1ccc2c(c1)CCN2S(=O)(=O)c1ccccc1 | inconclusive [activator, partial curve] | –
CCOC(=O)c1[nH]c(C)c(CCC(=O)NCc2ccccc2Cl)c1C | – | inactive: 10.5% [at 9.22 µM]
CCOC(=O)N1CCN(C(=O)CN(C2CCCCC2)S(=O)(=O)c2ccc(C)cc2)CC1 | inconclusive [activator, partial curve] | –
COc1ccccc1C1CC(c2ccc(Br)cc2)=NN1C(=O)c1cccnc1 (configuration not stated) | inconclusive [activator, single point] | –
COc1ccc(NC(=O)CSc2oc(-c3ccco3)nc2S(=O)(=O)c2ccc(Br)cc2)c(OC)c1 | inactive | –
COc1ccc(-c2cc(C(=O)NCc3ccc(F)cc3)c3c(-c4ccc(F)cc4)[nH]nc3n2)cc1OC | inconclusive [activator, full curve] | –

— PubChem BioAssay AID652104 (National Center for Advancing Translational Sciences (NCATS), 2013)
